Experimental data from publication PMC6212790.
Some of the results follow. At the low end of the ranking the order means little.

What follows are sequences tested against T1, GST-Rok-C97-191 (UniProt O34857) (assay: protein binding microarray). Settings: Rok is a gene silencer of Bacillus subtilis; high values mean tight binding; most listed sequences are background and not binding sites; double strand, one strand shown.
T1 sequence: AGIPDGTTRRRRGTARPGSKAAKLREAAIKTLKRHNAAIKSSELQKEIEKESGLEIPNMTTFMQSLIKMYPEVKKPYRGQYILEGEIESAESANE
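Note: rank score from −0.5 (least bound) to 0.5 (best bound).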

| Sequence | binding signal [E-score] |
| --- | --- |
| AACGAGGA | -0.183 |
| GTGGCCAC | -0.224 |
| GCCCGGAA | -0.202 |
| CTGCTGTC | -0.104 |
| AACACATA | 0.115 |
| ATGTTTAA | 0.115 |
| GAAGTTGC | 0.0541 |
| GGACAACA | -0.125 |
| ATAGTGCG | 0.187 |
| GCAAATAC | 0.159 |
| CTTAAAGC | -0.0585 |
| GAACTTGA | 0.101 |
| GGGACGTA | -0.0982 |
| CAAAGAAA | 0.00518 |
| AGATTTGC | 0.0206 |
| CAACCTTC | -0.0838 |
| AGTCTTTG | -0.101 |
| GCCGCAAA | -0.148 |
| CACGTTCC | -0.146 |
| TCACTGGA | -0.0749 |
| TGCAAGAA | -0.116 |
| AGGGCTGA | -0.189 |
| GCGTGTCA | -0.16 |
| AAACTGTA | 0.148 |
| ACTTTTGA | 0.0573 |

| Sequence | binding signal [E-score] |
| --- | --- |
| ACGCGTAA | 0.123 |
| CACATAGG | 0.00513 |
| TACCATGA | 0.241 |
| CAACGAAC | -0.0949 |
| CCGCGAAG | -0.0922 |
| CCTGTGAC | -0.153 |
| ACATTTCG | 0.246 |
| GCTAAGCC | -0.256 |
| ATTACGAA | 0.221 |
| CATTGTAA | 0.111 |
| CTAGGAGA | 0.068 |
| TGGAAGAA | -0.0659 |
| ACAGGTCA | -0.0801 |
| ATGGATCA | -0.0277 |
| CCCACTAC | 0.0131 |
| TGCGAGAA | -0.00388 |
| AAACGCGC | -0.0739 |
| CAGGTATA | 0.183 |
| CCCAAGTC | -0.11 |
| GCAGGGCC | -0.217 |
| GTTATTGA | 0.0258 |
| CCAAAGGA | -0.359 |
| GCCACCCA | -0.15 |
| ACATAATA | 0.156 |
| AGAGCACC | -0.00221 |

| Sequence | binding signal [E-score] |
| --- | --- |
| GCGGTGAA | -0.061 |
| GCGTGAGA | -0.00817 |
| AAGTACGG | 0.122 |
| CCTGTATA | 0.157 |
| AACTAGCG | 0.256 |
| CAGCAACC | -0.128 |
| AGTAATGA | 0.148 |
| GCAGGAAA | -0.0289 |
| CAACACTA | 0.276 |
| AAGAGGTA | 0.181 |
| CTCGCTCA | -0.0517 |
| ACTAGAAT | 0.349 |
| CGGCCCGC | -0.292 |
| AGGATCCA | -0.127 |
| GCTTCCCA | -0.244 |
| AAATTAAA | 0.205 |
| ATGTGACC | -0.0111 |
| ACCATCCG | -0.103 |
| AGCCCGAT | -0.027 |
| CCCGAGCA | 0.00679 |
| ACAAACTA | 0.382 |
| GACAAGAC | -0.266 |
| AAGGAGTC | -0.111 |
| ACTAATAC | 0.248 |
| GACCGGTC | -0.132 |

| Sequence | binding signal [E-score] |
| --- | --- |
| CATACACG | -0.108 |
| GAACTTAC | -0.0918 |
| AAGGCCCA | -0.167 |
| TCAATTGA | 0.148 |
| GACTAGTC | 0.0585 |
| TAGATCGA | 0.184 |
| CCCCCGCG | -0.134 |
| GAATCTCA | -0.149 |
| TATAACGA | 0.336 |
| CGTCAGCC | -0.124 |
| AGCATGAT | 0.161 |
| AGGGCTGG | -0.235 |
| CTCGATGC | -0.0432 |
| AAGACAGC | -0.184 |
| AGCCGCGC | -0.129 |
| CATAGCCA | -0.0756 |
| GGTCATCA | -0.165 |
| CTTACCGA | 0.0281 |
| CGGTGTCC | -0.364 |
| AGACCGCT | -0.264 |
| GATTTACA | 0.17 |
| CACATTTC | 0.224 |
| CCCACCCA | -0.0813 |
| CTCAAACC | -0.112 |
| TATCGGAA | 0.131 |

| Sequence | binding signal [E-score] |
| --- | --- |
| GTTCAGCA | 0.0486 |
| AGTTGAAA | 0.0127 |
| CATCCGAG | -0.0562 |
| AAGTGCCT | -0.00517 |
| CATACGCG | 0.0157 |
| TTACCTAA | 0.307 |
| AGCCAGCT | -0.19 |
| ACAATAGT | 0.233 |
| AATTCTTG | 0.0644 |
| CACTTTGG | -0.0473 |
| ACGAACAA | 0.08 |
| ACGATTAG | -0.0748 |
| AACGACAT | 0.196 |
| CCATGCTA | 0.153 |
| ACCCAAAA | 0.0965 |
| CCGCGCGG | -0.127 |
| GAAACTTA | 0.267 |
| CGCAAGTC | -0.0825 |
| ATACGGTA | 0.278 |
| ACAGCACA | 0.107 |
| AGGCGCGC | -0.315 |
| ATTCTTCA | 0.0472 |
| AAGGACGT | -0.0237 |
| AGAATAAG | 0.185 |
| AAGTGCGC | 0.0257 |

| Sequence | binding signal [E-score] |
| --- | --- |
| CTCCAGTA | -0.0378 |
| GCCTCACA | -0.143 |
| CAGTATTC | -0.233 |
| CACGTGAA | -0.0163 |
| GAATGAGA | -0.0102 |
| GGTAGCAA | 0.239 |
| AGTTGCCG | -0.136 |
| ACATACCG | 0.239 |
| ACCCAGGC | -0.329 |
| GTTTTGGA | -0.132 |
| CTCGTATA | 0.0281 |
| GTGCGACA | -0.095 |
| GATTGAGC | -0.0279 |
| CTGACATA | -0.188 |
| CATTACTA | 0.32 |
| TACCTAAA | 0.369 |
| AGGCGATG | -0.0796 |
| GAGCCCGC | -0.242 |
| GACACGCA | -0.104 |
| CATGGACA | -0.0157 |
| ATGGCTGC | -0.2 |
| CTGGGGGA | -0.35 |
| ACAGGATG | -0.113 |
| ATATACGA | 0.199 |
| GATTAAGA | 0.0702 |

| Sequence | binding signal [E-score] |
| --- | --- |
| CGGCGCTC | -0.257 |
| GAATAATA | 0.349 |
| GGGATTGA | -0.136 |
| AAGTAGCG | 0.125 |
| AGGAGGCG | -0.398 |
| ATCTTGTG | -0.0744 |
| GACTGATC | -0.282 |
| CACGTAAA | 0.0505 |
| CTATCCCA | 0.0785 |
| ATGTAAAA | 0.351 |
| CGTGATAG | 0.0722 |
| ACCAGCTA | 0.206 |
| TCTGTAAA | 0.027 |
| GAATCACC | -0.0218 |
| CACACAAG | -0.0988 |
| ACGTCCTA | 0.0596 |
| AGGATAAT | 0.2 |
| AAAGTCGT | 0.125 |
| CGGCTAAC | 0.00729 |
| GGCGAGTA | 0.0244 |
| GATGCAGC | -0.0978 |
| ACAAATCC | -0.129 |
